Test results: ChEMBL document CHEMBL5046221, “Identification of Pyrimidine-Based Lead Compounds for Understudied Kinases Implicated in Driving Neurodegeneration” (J Med Chem, 2022)
The source made the active and inactive calls. No cut-off for these calls is given here.

How the values were obtained:
[1] = molecular target: AP2-associated protein kinase 1 (Homo sapiens, UniProt Q2M2I8); test: Inhibition of human AAK1 using peptide as substrate incubated for 120 mins in presence of [gamma-33ATP] by scintillation counting based radiometry assay
How it was run: (§1)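 Eurofins radiometric kinase assay run at ATP equal to Km for each kinase. 9-point dose–response in duplicate gives the IC50.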

[2] = molecular target: T1, BMP-2-inducible protein kinase (Homo sapiens, UniProt Q9NSY1); test: Inhibition of NanoLuc-fused BMP2K (unknown origin) expressed in HEK293 cells incubated for 2 hrs by NanoBRET assay; type: cell-based
How it was run: (§2)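 Cellular NanoBRET target-engagement assays were run by Carna Biosciences to the manufacturer's protocol. Dose–response was in singlicate, with compounds tested at concentrations up to 10 μM.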

[3] = molecular target: T2, NUAK family SNF1-like kinase 1 (Homo sapiens, UniProt O60285); test: Inhibition of NanoLuc-fused NUAK1 (unknown origin) expressed in HEK293 cells incubated for 2 hrs by NanoBRET assay; type: cell-based; how it was run: as §2
T2 sequence (O60285 whole entry): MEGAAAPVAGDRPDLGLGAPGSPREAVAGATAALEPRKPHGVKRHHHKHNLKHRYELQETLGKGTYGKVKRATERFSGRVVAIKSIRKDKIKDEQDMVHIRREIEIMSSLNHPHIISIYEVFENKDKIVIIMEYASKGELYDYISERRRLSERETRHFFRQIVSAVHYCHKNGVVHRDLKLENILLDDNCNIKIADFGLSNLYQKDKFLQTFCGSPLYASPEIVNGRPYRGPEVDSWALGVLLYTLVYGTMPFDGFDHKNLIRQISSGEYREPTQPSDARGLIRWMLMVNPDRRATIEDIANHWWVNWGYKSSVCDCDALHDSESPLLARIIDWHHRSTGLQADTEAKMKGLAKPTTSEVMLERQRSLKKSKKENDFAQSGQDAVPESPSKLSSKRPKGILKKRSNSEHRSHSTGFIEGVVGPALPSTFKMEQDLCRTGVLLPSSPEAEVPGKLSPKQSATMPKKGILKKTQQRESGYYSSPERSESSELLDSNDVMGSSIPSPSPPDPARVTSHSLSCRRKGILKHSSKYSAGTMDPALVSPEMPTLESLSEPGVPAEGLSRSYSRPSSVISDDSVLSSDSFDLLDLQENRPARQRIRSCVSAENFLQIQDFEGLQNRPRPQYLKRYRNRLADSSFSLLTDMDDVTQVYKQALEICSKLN

[4] = molecular target: Serine/threonine-protein kinase 16 (Homo sapiens, UniProt O75716); test: Inhibition of human STK16 in presence of [gamma-33P-ATP] by radiometric scintillation assay; how it was run: as §1
Chain of UniProt O75716 (O75716 whole entry): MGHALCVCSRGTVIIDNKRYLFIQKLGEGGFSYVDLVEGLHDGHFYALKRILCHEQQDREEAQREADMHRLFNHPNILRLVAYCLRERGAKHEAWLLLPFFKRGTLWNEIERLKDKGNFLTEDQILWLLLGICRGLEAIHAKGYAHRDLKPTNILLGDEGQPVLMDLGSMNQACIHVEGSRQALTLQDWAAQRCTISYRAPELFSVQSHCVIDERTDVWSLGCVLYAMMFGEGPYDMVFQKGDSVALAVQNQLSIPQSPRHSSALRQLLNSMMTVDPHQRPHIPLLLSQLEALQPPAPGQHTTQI

[5] = molecular target: T1, BMP-2-inducible protein kinase; test: Inhibition of recombinant human BIKe using peptide as substrate incubated for 120 mins in presence of [gamma-33ATP] by scintillation counting based radiometry assay
How it was run: (§3)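 Eurofins radiometric enzymatic assay with ATP at Km for each kinase. IC50 was derived from a 9-point dose–response curve run in duplicate.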

[6] = molecular target: Non-receptor tyrosine-protein kinase TYK2 (Homo sapiens, UniProt P29597); test: Inhibition of human TYK2 (875 to end residues) using GGMEDIYFEFMGGKKK as substrate measured after 40 mins in presence of [gamma33P]ATP by radiometric scintillation counting method; how it was run: as §3
Chain of UniProt P29597 (P29597 whole entry): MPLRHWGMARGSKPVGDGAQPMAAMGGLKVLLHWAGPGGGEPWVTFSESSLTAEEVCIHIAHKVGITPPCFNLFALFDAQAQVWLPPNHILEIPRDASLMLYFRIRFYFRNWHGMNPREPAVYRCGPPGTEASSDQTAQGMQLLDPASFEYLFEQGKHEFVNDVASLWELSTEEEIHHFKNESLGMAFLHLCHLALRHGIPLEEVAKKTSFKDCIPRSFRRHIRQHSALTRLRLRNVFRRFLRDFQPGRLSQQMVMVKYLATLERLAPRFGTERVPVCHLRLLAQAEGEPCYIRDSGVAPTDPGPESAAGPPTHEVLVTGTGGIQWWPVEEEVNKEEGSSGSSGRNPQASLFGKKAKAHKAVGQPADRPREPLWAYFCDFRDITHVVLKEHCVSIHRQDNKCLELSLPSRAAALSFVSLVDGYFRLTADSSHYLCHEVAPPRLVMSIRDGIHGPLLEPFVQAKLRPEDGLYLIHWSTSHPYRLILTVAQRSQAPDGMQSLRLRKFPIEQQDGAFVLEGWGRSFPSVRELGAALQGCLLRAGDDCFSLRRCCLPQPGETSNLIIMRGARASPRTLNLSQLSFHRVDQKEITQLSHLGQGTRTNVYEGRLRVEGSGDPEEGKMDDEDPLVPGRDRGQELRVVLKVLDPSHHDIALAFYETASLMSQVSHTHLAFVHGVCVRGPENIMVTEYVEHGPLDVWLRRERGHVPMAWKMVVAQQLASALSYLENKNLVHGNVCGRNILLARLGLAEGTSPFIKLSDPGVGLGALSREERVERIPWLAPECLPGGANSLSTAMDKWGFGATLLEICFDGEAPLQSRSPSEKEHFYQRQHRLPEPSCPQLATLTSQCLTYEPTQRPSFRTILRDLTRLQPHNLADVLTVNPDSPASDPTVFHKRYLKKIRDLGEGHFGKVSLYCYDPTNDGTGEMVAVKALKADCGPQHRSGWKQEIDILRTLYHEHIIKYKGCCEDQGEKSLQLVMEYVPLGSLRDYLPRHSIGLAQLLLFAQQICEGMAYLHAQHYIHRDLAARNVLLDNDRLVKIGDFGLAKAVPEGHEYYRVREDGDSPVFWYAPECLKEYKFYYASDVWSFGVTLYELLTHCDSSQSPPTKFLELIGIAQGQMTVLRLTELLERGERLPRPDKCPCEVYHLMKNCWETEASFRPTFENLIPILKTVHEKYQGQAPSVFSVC

[7] = molecular target: Phosphatidylinositol 4-phosphate 5-kinase type-1 alpha (Homo sapiens, UniProt Q99755); test: Inhibition of full length recombinant human PIP5K1A using phosphatidylinositol 4-phosphate/phosphatidylserine as substrate incubated for 30 mins in presence of ATP by fluorescence based HTRF assay
Chain of UniProt Q99755 (Q99755 whole entry): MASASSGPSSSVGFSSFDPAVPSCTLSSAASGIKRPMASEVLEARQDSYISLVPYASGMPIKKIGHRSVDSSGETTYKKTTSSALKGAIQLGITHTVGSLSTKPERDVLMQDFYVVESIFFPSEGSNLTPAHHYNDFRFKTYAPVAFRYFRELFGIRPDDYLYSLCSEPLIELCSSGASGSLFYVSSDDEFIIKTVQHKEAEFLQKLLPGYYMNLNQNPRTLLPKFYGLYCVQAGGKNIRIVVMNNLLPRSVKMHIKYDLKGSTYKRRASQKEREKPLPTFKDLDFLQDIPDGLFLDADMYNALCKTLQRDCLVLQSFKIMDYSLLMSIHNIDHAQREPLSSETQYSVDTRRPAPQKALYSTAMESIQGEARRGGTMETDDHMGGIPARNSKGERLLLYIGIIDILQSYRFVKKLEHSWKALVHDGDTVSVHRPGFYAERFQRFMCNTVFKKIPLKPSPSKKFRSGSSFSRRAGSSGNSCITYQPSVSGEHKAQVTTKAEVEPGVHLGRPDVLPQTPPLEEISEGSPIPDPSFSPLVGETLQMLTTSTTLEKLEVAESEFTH

[8] = molecular target: T3, NUAK family SNF1-like kinase 2 (Homo sapiens, UniProt Q9H093); test: Inhibition of full length recombinant human NUAK2 using KKKVSRSGLYRSPSMPENLNRPR as substrate incubated for 40 mins in presence of [gamma-33P-ATP] by radiometric scintillation assay; how it was run: as §3
T3 sequence (Q9H093 whole entry): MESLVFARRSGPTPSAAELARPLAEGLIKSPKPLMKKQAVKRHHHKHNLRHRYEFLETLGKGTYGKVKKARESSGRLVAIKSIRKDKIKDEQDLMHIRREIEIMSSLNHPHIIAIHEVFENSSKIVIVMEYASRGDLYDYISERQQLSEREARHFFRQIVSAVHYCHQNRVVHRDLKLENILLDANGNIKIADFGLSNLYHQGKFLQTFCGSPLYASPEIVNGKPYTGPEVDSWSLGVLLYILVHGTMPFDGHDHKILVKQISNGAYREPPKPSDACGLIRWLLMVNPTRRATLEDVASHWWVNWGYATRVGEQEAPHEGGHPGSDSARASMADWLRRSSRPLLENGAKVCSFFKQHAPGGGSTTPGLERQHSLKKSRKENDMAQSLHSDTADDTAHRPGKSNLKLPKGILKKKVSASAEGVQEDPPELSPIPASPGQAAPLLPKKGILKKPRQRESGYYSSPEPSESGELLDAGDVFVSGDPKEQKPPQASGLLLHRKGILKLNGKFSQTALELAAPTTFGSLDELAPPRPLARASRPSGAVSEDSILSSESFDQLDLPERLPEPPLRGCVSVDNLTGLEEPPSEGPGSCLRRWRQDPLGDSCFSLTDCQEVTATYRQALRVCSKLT

[9] = molecular target: Casein kinase II subunit alpha' (Homo sapiens, UniProt P19784); test: Inhibition of full length recombinant human CSNK2A2 using RRRDDDSDDD a substrate incubated for 40 mins in presence of [gamma-33P-ATP] by radiometric scintillation assay; how it was run: as §3
Chain of UniProt P19784 (P19784 whole entry): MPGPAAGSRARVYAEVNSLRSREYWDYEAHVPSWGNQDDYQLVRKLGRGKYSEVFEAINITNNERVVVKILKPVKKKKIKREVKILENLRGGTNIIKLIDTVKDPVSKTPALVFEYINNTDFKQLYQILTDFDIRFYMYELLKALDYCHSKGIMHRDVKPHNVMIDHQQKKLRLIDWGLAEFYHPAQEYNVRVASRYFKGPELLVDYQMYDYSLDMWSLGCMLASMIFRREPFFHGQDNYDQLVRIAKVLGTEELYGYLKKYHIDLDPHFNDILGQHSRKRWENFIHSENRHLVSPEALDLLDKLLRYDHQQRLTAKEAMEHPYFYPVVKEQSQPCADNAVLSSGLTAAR

[10] = molecular target: T4, Serine/threonine-protein kinase ULK3 (Homo sapiens, UniProt Q6PHR2); test: Inhibition of full length recombinant human ULK3 using casein as substrate incubated for 40 mins in presence of [gamma-33P-ATP] by radiometric scintillation assay; how it was run: as §3
T4 sequence (Q6PHR2 whole entry): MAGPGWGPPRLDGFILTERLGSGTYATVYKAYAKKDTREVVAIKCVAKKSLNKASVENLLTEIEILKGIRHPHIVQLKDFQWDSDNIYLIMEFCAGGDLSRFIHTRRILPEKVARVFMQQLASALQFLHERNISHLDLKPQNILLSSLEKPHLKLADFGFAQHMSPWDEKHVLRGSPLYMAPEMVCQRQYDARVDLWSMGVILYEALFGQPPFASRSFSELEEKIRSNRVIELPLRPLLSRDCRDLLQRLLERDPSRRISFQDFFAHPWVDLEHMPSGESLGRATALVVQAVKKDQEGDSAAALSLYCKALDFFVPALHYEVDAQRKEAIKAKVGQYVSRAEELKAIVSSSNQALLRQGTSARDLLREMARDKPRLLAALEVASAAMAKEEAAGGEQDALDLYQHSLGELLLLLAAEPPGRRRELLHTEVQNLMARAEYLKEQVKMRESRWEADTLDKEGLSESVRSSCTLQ

[11] = molecular target: Macrophage colony-stimulating factor 1 receptor (Homo sapiens, UniProt P07333); test: Inhibition of recombinant human FMS (538 to end residues) using KKKSPGEYVNIEFG as substrate measured after 40 mins in presence of [gamma33P]ATP by radiometric scintillation counting method; how it was run: as §1
Chain of UniProt P07333 (P07333 whole entry): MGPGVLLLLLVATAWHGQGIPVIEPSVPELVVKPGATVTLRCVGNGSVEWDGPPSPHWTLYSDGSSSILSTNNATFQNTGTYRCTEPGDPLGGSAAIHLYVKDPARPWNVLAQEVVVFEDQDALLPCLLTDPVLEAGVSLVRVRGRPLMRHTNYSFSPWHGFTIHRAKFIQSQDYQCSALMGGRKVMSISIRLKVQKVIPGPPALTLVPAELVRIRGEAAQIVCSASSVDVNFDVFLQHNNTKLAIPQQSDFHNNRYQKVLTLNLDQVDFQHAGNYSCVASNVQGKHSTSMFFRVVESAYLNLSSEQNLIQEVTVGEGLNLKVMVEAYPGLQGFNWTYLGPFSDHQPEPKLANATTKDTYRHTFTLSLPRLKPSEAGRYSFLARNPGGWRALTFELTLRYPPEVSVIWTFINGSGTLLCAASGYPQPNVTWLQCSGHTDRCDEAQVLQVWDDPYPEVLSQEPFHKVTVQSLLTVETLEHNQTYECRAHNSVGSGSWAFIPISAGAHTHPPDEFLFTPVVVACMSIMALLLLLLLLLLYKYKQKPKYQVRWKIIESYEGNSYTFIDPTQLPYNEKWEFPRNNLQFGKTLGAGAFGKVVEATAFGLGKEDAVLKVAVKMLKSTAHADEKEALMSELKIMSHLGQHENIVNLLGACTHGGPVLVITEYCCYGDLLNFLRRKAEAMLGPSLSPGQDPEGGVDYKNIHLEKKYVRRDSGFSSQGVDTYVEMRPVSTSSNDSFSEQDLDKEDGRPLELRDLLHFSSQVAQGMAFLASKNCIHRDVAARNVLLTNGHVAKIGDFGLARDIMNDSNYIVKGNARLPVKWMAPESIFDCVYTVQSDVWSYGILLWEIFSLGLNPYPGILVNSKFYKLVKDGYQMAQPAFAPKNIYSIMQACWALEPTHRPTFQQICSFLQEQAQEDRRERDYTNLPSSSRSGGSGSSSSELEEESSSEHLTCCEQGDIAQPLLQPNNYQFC

SMILES	IC50 [1]	inhibition [1]	IC50 [2]	IC50 [3]	IC50 [4]	IC50 [5]	inhibition [5]	IC50 [6]	IC50 [7]	IC50 [8]	IC50 [9]	IC50 [10]	IC50 [11]
NS(=O)(=O)c1ccc(CNc2nc(Nc3cccc(NC(=O)N4CCCC4)c3)ncc2Br)cc1	74 nM	Active	3000 nM	> 10000 nM	82 nM	40 nM	Active	48 nM	> 10000 nM	900 nM	2270 nM		
Cc1nn(CC(F)(F)F)cc1Nc1ncc(C2CC2)c(NCCCNC(=O)C2CCC2)n1												343 nM	
NS(=O)(=O)c1ccc(CNc2nc(Nc3cccc(CN4CCOCC4)c3)ncc2Br)cc1	80 nM		1020 nM	7010 nM	88 nM	38 nM	Active	67 nM	> 10000 nM		2300 nM	1370 nM	192 nM
Cc1nn(CC(F)(F)F)cc1Nc1ncc(Br)c(NCc2ccc(S(N)(=O)=O)cc2)n1										1150 nM		946 nM	264 nM
